Reference: the supplement of paper PMC11417369
± gives the standard deviation of the averaged measurements. Some of the results follow.

These sequences were tested on PfAP2-G AP2 domain (GST-tagged) (assay: gcPBM binding intensity (ln(normalized median fluorescence intensity)); higher = stronger DNA binding).
Method in brief: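 GST-fused DNA-binding domains of P. falciparum, expressed in E. coli, were applied at about 25 μg on average for 1 h to an Agilent 4 × 180k array of primer-extended double-stranded 36-bp intergenic genomic probes and negative controls. Binding intensity is the highest Masliner-normalised natural-log median intensity across replicate spots of either probe orientation, measured with Alexa488 anti-GST antibody and a 488 nm scan.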

Sequence | gcPBM binding intensity (ln)
TAATTTCTTATGTATTGTACAAATAATATATTATTT [XGTACX_site3066] | 10.6 ± 0.26
ATTCAAAATAATCACAGTACACATGAGATTATCTTT [XGTACX_site2197] | 11 ± 0.8
GAAATATATAAATTGACACACACATATATACATATA [CACACA_site8323] | 10 ± 0.15
TGTATTATTAATATTTGTACGTAATAATAAAAACAT [XGTACX_site3716] | 11.5 ± 1
TGGAAACAAAAACACACACACAAAAAAAAAAAAAAA [CACACA_site3209] | 9.83 ± 0.42
TCCTTAGAAATATTGATCATAAACTGGAAAGGTATA [XGTACX_negctrl_site354] | 10 ± 0.24
TCCTAATATTTGTCAAATTTCAAAATAAATAAAATG [XGTACX_negctrl_site540] | 9.97 ± 0.36
TAATTAAAATCATATACACACCCATATATATATATA [CACACA_site8524] | 9.97 ± 0.26
TTAAAAATATTATGTACACACATTTTAGATATTTGT [CACACA_site1846] | 11.6 ± 0.77
TAAATATATATATATTGTACAAAACAAATGTGAATT [XGTACX_site696] | 10.7 ± 0.28
ATATTAAGTTTTATTACACACTCTCAATTTTTATTT [CACACA_site4206] | 9.91 ± 0.11
TAAATGTTTCTCAAAAGTACACATGTGATATTTCTT [XGTACX_site2065] | 11.2 ± 0.82
TATATATATATGTACACACACACATATAAATAAATA [CACACA_site443] | 11.5 ± 1.1
TAAAAGGGGATATATGAACACACAAAAAAAAAATAT [CACACA_site8940] | 10.2 ± 0.19
TTAAAAAAAAAAAAAAGTACATAAGTATATATAATA [XGTACX_site4295] | 11.7 ± 1
CATATTTTTTCTTAAACACACACATATATATATATA [CACACA_site8920] | 10.4 ± 0.47
CATATTATATTTTCATGTACACATAACATATTTATA [XGTACX_site4787] | 11.4 ± 1
GTTATAAACAAAATAAATATATGAATATATAATAAT [XGTACX_negctrl_site96] | 9.6 ± 0.13
TACAAATATAGATGCACACACATATAGGTATATGTG [CACACA_site7439] | 10.5 ± 0.16

Sequence | gcPBM binding intensity (ln)
TATATATAATTATAAGAACACACATATATATATATA [CACACA_site8786] | 10.2 ± 0.45
ATATATTTCTGTCAAGCACACATAATATTAATATAT [CACACA_site7993] | 10.1 ± 0.11
AATGATACTTAGGGGCATGTCTCTGGGGGCATAACC [CACACA_negctrl_site591] | 10.8 ± 0.61
AAGTTTTCTTAAAGCTGTACTTTTTAAAAATAAAAT [XGTACX_site7716] | 11.4 ± 0.91
ATATAGTAAATGTTCACACATACAAATATATATATA [CACACA_site5518] | 9.96 ± 0.15
TTTTCTTGATTTTGTAGTACATTTTTACGATATTTT [XGTACX_site63] | 11.4 ± 0.68
ATGTAAATTATTATTCTATTGTTATATACACAATAT [XGTACX_negctrl_site332] | 9.95 ± 0.11
AAAATTATATTTTATAGAAATTTAAATAAATATATA [GTGCAC_negctrl_site199] | 9.51 ± 0.16
TTTTTAAAAATAACAGAAAAGAATTACAGATTTTTT [XGTACX_negctrl_site472] | 9.72 ± 0.13
CACATACATATATACACACACAAAATAATAAAATAA [CACACA_site2308] | 10.2 ± 0.17
AGAGAGAAAGGTATAACATGCGATAAATTTTAGAAG [TGCATGCA_site37] | 9.745 ± 0.049
TTTTTTACATCCATAAAACTTTTTCTCTTTTAAAAT [CACACA_negctrl_site1745] | 10.1 ± 0.2
AAATCACTTTTTAAGTGTACTTGGTCTTTCTCATTT [XGTACX_site7221] | 11.3 ± 0.92
ATATAGTTCGTTTATACACACATGATAAGATATTTA [CACACA_site1947] | 10.06 ± 0.021
TAATTATAAATTATAGTGCATAAAATTGTAGCATAA | 9.89 ± 0.085
AAAATATGATATGAAAAATTTGTTATATATACATAA [CACACA_negctrl_site1529] | 9.6 ± 0.18
GACATTTGTGAGCTTGAGCCGTCAAACCACTAAATA [CACACA_negctrl_site552] | 9.99 ± 0.028
AAAAAATTGAAGGAGTGTACATTTATACTTTATTTT [XGTACX_site8623] | 11.1 ± 0.15
TGTAGAATTTCCTGAACATGCAAATAATTTTCCTTA [TGCATGCA_site881] | 9.795 ± 0.078

Sequence | gcPBM binding intensity (ln)
AACATAATAAAAATGGATATAATTCAAAGTTTGTAA [TGCATGCA_negctrl_site529] | 9.73 ± 0.13
TGTTATTCGACATATACACACAAATAACAATTTAAA [CACACA_site5076] | 10.2 ± 0.33
AGGTCTGTTTTATATTGTACATAAAAAGTGCACATG [XGTACX_site4529] | 11.2 ± 0.74
TGTATTAATATGGTAATACACACTAATATACTTTTG [CACACA_site1610] | 10.2 ± 0.21
TTCTATAAGTATAAATGTACAAAAAAAACATCATTC [XGTACX_site5450] | 10.8 ± 0.38
ATTTTTTTTTAATGCAAAAGGTGATGATCGGTCATA [CACACA_negctrl_site959] | 10.2 ± 0.35
CATATTCCAAGAATGTGTACATAATTTTTTTTTTTT [XGTACX_site4310] | 11.4 ± 0.8
CTCATAATTTCTGAACGTACGTATTTCTCATTTTTA [XGTACX_site7296] | 11.3 ± 0.76
TGTTAATTTATATTATGTACTTATAATTATCGTTTG [XGTACX_site1032] | 11.3 ± 0.95
TATAGATGTATGTACATACACACATATATAAATAAA [CACACA_site1789] | 11.3 ± 0.76
ATAATTCTAAATAAATGTACACACAAAAATAAATGT [XGTACX_site3547] | 11.4 ± 0.69
TAACGCATGAATATAATATATATATATATAAAAATA [GTGCAC_negctrl_site218] | 9.62 ± 0.12
ATTGTATGCACGTCTGCACACTTTTTTTTTTTTTTT [CACACA_site2082] | 10.4 ± 0.14
GTTAATTGAAGATTCACACATAAATATATATATAAT [CACACA_site5482] | 9.79 ± 0.12
TAGATAAATGGGTATACACACATATACATAAATATA [CACACA_site375] | 10.02 ± 0.085
GTAAGATTTCTTGTTGCATGCGGTAAAAAGTAAAAT [TGCATGCA_site469] | 10.6 ± 0.41
AACTTTATACTTTTTTGTACTTAACCCTTACATTTT [XGTACX_site5798] | 11.1 ± 0.38
TTTATATATTTATTCACACATATAATATTCCGTCGT [CACACA_site6120] | 9.84 ± 0.11
